These results are taken from ChEMBL document CHEMBL4888484, “Replenishing the malaria drug discovery pipeline: Screening and hit evaluation of the MMV Hit Generation Library 1 (HGL1) against asexual blood stage Plasmodium falciparum ,using a nano luciferase reporter read-out” (2022).

Hit rate of the full screen: of about 150,000 compounds, about 540 (0.36%) showed an effect of 50% or more. Some of the results follow.

The test system of the experiment is Plasmodium falciparum. Nature of the experiment: Primary screen in NF54 nanoGlo assay, in single point, at 2uM, 72h; a lower Z score goes with more inhibition. It counts as functional, Erythrocyte. The conditions noted are these: timepoint 72 hour.
For orientation: % Inhibition means the relative decrease from the control value, in per cent. With `CC(C)N(CC(=O)Nc1nccs1)Cc1ccccn1`, the “% Inhibition” value is 65% and the Z score is on record as -10.08.
In the case of `COC(=O)c1cc(CN(C)[C@@H](C)c2cccc(O)c2)c[nH]1`, the “% Inhibition” value is on record as -5% and the Z score is reported as 0.55.
For `C[C@@H](c1ccc(C(=O)NCc2nc(-c3ccccn3)no2)o1)N1CCCCC1` the same measures were -7% and 1.13.
For `O=C(c1nc2ccccc2[nH]c1=O)N1CCC(c2nccn2CC2CC2)CC1` the same measures were -2% and 0.18.
Take `CCCCc1nc(CN2CCC(C(=O)O)(n3cccn3)CC2)c[nH]1`: the “% Inhibition” value came out at 2% and the Z score is recorded as -0.37.
For `CCCc1n[nH]cc1C(=O)N1CCC2(CCCO2)CC1` the same measures were -6% and 0.54.
For `CCc1nnc(N2CCCN(C(=O)[C@@H]3CCCO3)CC2)o1` the same measures were 0% and 0.03.
For `O=C(NCC1(O)CCC1)Nc1cccc2ccsc12` the same measures were 23% and -2.66.
Take `CC(OC(=O)C(C)N1C(=O)C2CCCCC2C1=O)C(=O)Nc1ccc(N2CCCCC2)cc1` (centres undefined): the “% Inhibition” value is listed as -11% and the Z score is on record as 1.46.
Take `O=C(COc1ccc(Cl)cc1)N1CCN(c2ncc(F)cn2)C(=O)C1`: the “% Inhibition” value was -8% and the Z score stood at 1.3.
For `CN1CCC(N2CCN(Cc3ccc(Cl)o3)CC2)CC1` the same measures were -2% and 0.38.
For `Cn1nccc1C(=O)NCCCc1nc2c(s1)CCCC2` the same measures were 9% and -1.11.
For `CCN1C(=O)c2ccccc2Oc2ccc(C(=O)Nc3ccc(C(F)(F)F)cc3)cc21` the same measures were 4% and -0.79.
Turning to `CC(C)(C)CN(CC(=O)O)C(=O)Cc1ccccc1F`, the “% Inhibition” value is given as -9% and the Z score worked out at 1.82.
For `Oc1ccc(Cl)cc1-c1nc2ccc(-c3ccc(C(F)(F)F)cc3)cc2o1` the same measures were -12% and 1.72.
For `CCCCS(=O)(=O)N1CCC2(CCC(N3CCc4ccccc4C3)CC2)CC1`, the “% Inhibition” value is 23% and the Z score is -2.99.
On to `COC1CC(N(C)S(=O)(=O)c2ccc3[nH]c(=O)cnc3c2)C12CCC2` (centres undefined), for which the “% Inhibition” value was -5% and the Z score is recorded as 1.02.
For `CCN(Cc1ccc(C)o1)C(=O)N[C@@H](C)CN1CCCC1` the same measures were 1% and -0.09.
For `CC[C@H](OC)C(=O)N1CCOc2ccc(Br)cc2C1` the same measures were -14% and 2.19.
Regarding `Cc1ccc(-c2c[n+](-c3ccc(OC(F)F)cc3)c3n2CCCCC3)cc1`, the “% Inhibition” value turned out to be 66% and the Z score was -12.11.
For `CCc1nc(N(CCC(=O)N2CCOCC2)CCc2ccccc2)c2cc(Cl)cc(Cl)c2n1` the same measures were -3% and 0.28.
For `FC(F)COc1ccccc1NCC[C@H]1CCCO1` the same measures were 7% and -0.95.
Take `CCN(CC)CCn1c(-c2ccccc2)cn2c3ccccc3nc12`: the “% Inhibition” value is listed as -8% and the Z score was 0.7.
For `CC1(C)NC(=O)N(CC(=O)Nc2cccc(N3CCCC3=O)c2)C1=O` the same measures were -16% and 1.44.
For `CCc1onc(C)c1CN1CCC(c2nc(C)c(C)[nH]2)CC1` the same measures were -3% and 0.39.
For `Cc1nc(N2CCC(C(=O)NCC3CC3)CC2)nc2cc(S(C)(=O)=O)ccc12` the same measures were 19% and -2.46.
As to `O=C(NCCN1CCCC1)c1ccnc(N2CCN[C@H](c3ccccc3)C2)c1`, the “% Inhibition” value is listed as -12% and the Z score is given as 1.25.
With `CCOc1ccccc1C(=O)NCC1CCN(Cc2ccco2)CC1`, the “% Inhibition” value was -19% and the Z score is listed as 2.98.
For `O=C1N[C@@H](CNC(=O)c2ccccc2F)CO1` the same measures were -10% and 1.19.
Regarding `CCN1CCC[C@H](Nc2ncnc3c2cnn3C)C1`, the “% Inhibition” value is on record as -11% and the Z score stood at 2.23.
For `COc1cc(-c2ccnc3nc(C4CCCCC4)nn23)cc(OC)c1OC`, the “% Inhibition” value is -8% and the Z score turned out to be 1.55.
For `CCn1cc(-c2ccc(F)cc2)cc1C(=O)N[C@@H](C)c1cccnc1` the same measures were -1% and 0.09.
For `Cc1cc(=O)c(OCC(=O)N2CCC(NC(=O)OC(C)(C)C)CC2)cn1C` the same measures were -15% and 1.65.
For `COc1ccccc1N[C@H](c1ccccn1)c1c(C)[nH]c2ccc(NC(=O)c3ccc(C)cc3)cc12` the same measures were -2% and 0.37.
For the molecule `COC(=O)[C@H](N)c1ccc(C(C)(C)C)cc1`, the “% Inhibition” value was -13% and the Z score came to 1.3.
For `O=C(NCc1cccs1)[C@@H]1Cc2[nH]cnc2C2(CCCC2)N1` the same measures were -9% and 1.4.
For `CCn1c(C)c(-c2nc(C3CC3)no2)c(S(=O)(=O)N2CCC(C)CC2)c1C` the same measures were -8% and 1.58.
For `O=C(c1ccsc1)N1CCN([C@H]2CCOC2)CC1` the same measures were -9% and 1.78.
On to `O=C(Nc1ccc(S(=O)(=O)Nc2cnc3ccccc3n2)cc1)c1ccc(Cl)cc1Cl`, for which the “% Inhibition” value is -8% and the Z score is given as 1.1.
For `C[C@@H](CNc1ncccc1Cl)Cn1ccnc1` the same measures were -13% and 1.43.
For `NC(=O)[C@]12CCC[C@H]1CN(C(=O)NC(C1CCCC1)C(F)(F)F)C2` (some centres undefined) the same measures were -4% and 0.62.
For `CC(C)C[C@H](C)n1nccc1NC(=O)CN1CCC(=O)NC1=O` the same measures were -6% and 1.19.
